Measurements as given in ChEMBL document CHEMBL1201862, “PubChem BioAssay data set” (2004).
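In this assay, cells in 96-well plates receive the compound at five concentrations for 48 hours. Endpoints are linearly interpolated between the surrounding concentrations. Here, GI50 denotes the concentration required for 50% inhibition of growth.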 Activity calls are given as the source filed them. Rule as the data show it: active = GI50 up to about 1.1 µM and inactive = higher. Square brackets hold non-standard residues; d marks the D form. Peptide text beside a SMILES is read from it. * marks the point of attachment. ξ: configuration not given here. ξNMeF = CNC(Cc1ccccc1)C(=O)O; NMeV = CN[C@H](C(=O)O)C(C)C; Boc = CC(C)(C)OC(=O)*; OBn = c1ccc(CO*)cc1

Tested on: NCI-H322M
Experiment: DTP human tumour cell line panel, 48 h

| Structure (SMILES) | GI50 |
| --- | --- |
| O=C1NC(c2ccccc2)C1N(Cc1ccccc1)Cc1ccccc1 (centres undefined) | inactive: > 100 µM |
| CC(C)=C[C@H]1C[C@H](C)[C@H]2CC[C@H](C)c3c2c1c(C)c1ncoc31 | inactive: 21.3 µM |
| O=C(O)c1cnccc1-c1cc(=O)[nH]n1-c1ccccc1 | inactive: > 96.2 µM |
| O=[As](O)(O)c1ccc(/N=N/c2ccc(O)cc2)cc1 | inactive: > 100 µM |
| CC[C@@]1(O)C(=O)OCc2c1cc1n(c2=O)Cc2c-1nc1ccccc1c2/C=N\NC(=O)C(N)Cc1c[nH]c2ccccc12 (some centres undefined) | inactive: 2 µM |
| CC(=O)OC1CC2C(C)(C)C(=O)C=C[C@]2(C)C2CCC3(C)C(=CCC3[C@H](CO)C[C@H](O)C(=O)C(C)(C)O)[C@]12C (some centres undefined) | inactive: 27.9 µM |
| Cc1ccc(NC(=O)NC(=O)c2ccc([N+](=O)[O-])cc2[N+](=O)[O-])cc1Oc1ncc(Cl)cn1 | active: 0.542 µM |
| Cc1nc2ccc(S(=O)(=O)O)cc2c(=O)n1-c1ccc(C(=O)NN2C(=O)C(Cl)C2c2cccs2)cc1 (centres undefined) | inactive: > 100 µM |
| Cc1cccc(-c2cc(O)c3ccc(C)nc3n2)c1 | active: 0.366 µM |
| O=C1NC(O)CCN1C1OC(CO)C(O)C1O (centres undefined) | inactive: > 250 µM |
| Cn1c(=O)c2c(nc3n2CCC(=O)N3)n(C)c1=O | inactive: > 100 µM |
| COc1cc(C2c3cc4c(cc3OC(Nc3ccc(C(=O)O)cc3)C2C)OCO4)cc(OC)c1OC (centres undefined) | active: 0.457 µM |
| CC(C)n1c(=O)[nH]n(-c2ccccc2)c1=O | inactive: > 100 µM |
| O=C1NC(=S)NC(=O)C1=Cc1ccc[nH]1 | inactive: 24.5 µM |
| C[Si](C)(OCCS(=O)(=O)O)C1S(=O)(=O)OCCOS1(=O)=O | inactive: > 100 µM |
| Cc1ccc2c(c1)C(=O)C1(Cc3ccccc3C1=O)C2 (centres undefined) | inactive: > 100 µM |
| O=C1C(Cl)C2(CC(/C=C/c3ccccc3O)=NN2c2cccc(S(=O)(=O)O)c2)N1c1nc2ccccc2s1 (centres undefined) | inactive: 29 µM |
| Cc1c2c(n(CCc3ccccc3)c1C)N(C)N=C(C#N)S2(=O)=O | inactive: > 100 µM |
| c1c[nH]c(-c2cccc3nsnc23)c1 | inactive: 84.5 µM |
| O=C1Cc2ccccc2CCc2ccsc21 | inactive: > 100 µM |
| COC1O[C@@H]2CCN3C(=O)[C@@H](OC(=O)c4ccc([N+](=O)[O-])cc4)[C@H]1C23 (some centres undefined) | inactive: > 100 µM |
| O=C1CNC(=O)c2[nH]cnc2N1 | inactive: > 100 µM |

| Structure (SMILES) | GI50 |
| --- | --- |
| O=c1[nH]c(-n2[nH]c3c(c2=O)CCCC3)nc(O)c1-c1ccccc1 | inactive: > 100 µM |
| Nc1nc(=O)n([C@@H]2CC[C@H](CO)O2)cc1F | inactive: > 100 µM |
| CCCCCCCCCCCCCCCCCCNc1ccn(C2OC(COP(=O)(O)OCC(COP(=O)(O)OCC3OC(n4cc(C)c(=O)[nH]c4=O)CC3N=[N+]=[N-])OCCCCCCCCCCCCCCCCCC)C(O)C2O)c(=O)n1 (centres undefined) | inactive: > 100 µM |
| COc1ccc2c(c1)-c1nn(CCCN(C)C)c3ccc([N+](=O)[O-])c(c13)N2 | active: 0.201 µM |
| [O-][S+]1SC(=S)C2C=CC=CC21 (centres undefined) | inactive: > 100 µM |
| COc1ccc2c(c1)C/C(=C\c1cccc3ccccc13)C2=O | inactive: 6.15 µM |
| COc1cc(/C=N/N=C(\N)NO)c([N+](=O)[O-])cc1OC | inactive: 8.53 µM |
| CCOc1ccc(Nc2nc3c(s2)C(=O)c2ccccc2C3=O)cc1 | inactive: 18.7 µM |
| COC(=O)c1c(C)cccc1/C=C1\Cc2cc(C)cc(C)c2C1=O | inactive: 54.3 µM |
| COc1ccc(CCCNC(=O)c2cc(OC)c(OC)cc2CCO)cc1OC | inactive: > 100 µM |
| C[C@]12Cc3cnn(-c4ccc(F)cc4)c3NC1CC[C@@H]1C2CC[C@@]2(C)C1CC[C@@H]2O (some centres undefined) | inactive: 13 µM |
| COc1cc(C2c3cc4c(cc3OC(Nc3ccccc3)C2C)OCO4)cc(OC)c1OC (centres undefined) | active: 0.305 µM |
| Cc1cc2c(cc1C)[n+]([O-])c(NCCCN(C)C)c(C#N)[n+]2[O-] | inactive: > 100 µM |
| CN(C)c1ccc(-c2c(C#N)c(O)n(NS(=O)(=O)c3ccccc3)c(=O)c2C#N)cc1 | inactive: > 100 µM |
| CCOc1cc(C2CC(c3ccc(NS(=O)(=O)c4cc([N+](=O)[O-])ccc4C)cc3)=NN2)ccc1O (centres undefined) | inactive: 25.1 µM |
| O=C(O)CNCc1c2ccccc2[n+]([O-])c2ccccc12 | inactive: 43.7 µM |
| CCn1c(=O)nc2n(-c3ccc(SC)cc3)c3ccccc3nc-2c1=O | inactive: > 100 µM |
| CC(C)[C@@H](C(=O)N(C)[C@H](C(=O)N1CCC[C@H]1C(=O)OCc1ccccc1)C(C)C)N(C)C(=O)C(Cc1ccccc1)N(C)C(=O)[C@H](NC(=O)OC(C)(C)C)C(C)C (some centres undefined) (Boc-[dV][ξNMeF][NMeV][NMeV]P-OBn) | inactive: > 31.6 µM |
| Cc1ccc(C2=CC(=O)/C(=C\C(=O)c3ccc(Cl)cc3)O2)cc1 | inactive: 50.7 µM |
| O=C(Nc1c(Cl)cccc1Cl)c1c(Cl)c(Cl)c(Cl)c(Cl)c1-c1nc2ccccc2[nH]1 | active: 0.0721 µM |
| O=c1cc[nH]c2c1ccc1ncccc12 | inactive: > 100 µM |
| COc1cccc(-c2cc(O)c3cc(N4CCOCC4)ccc3n2)c1 | active: 0.0748 µM |

| Structure (SMILES) | GI50 |
| --- | --- |
| Nc1ccccc1OCCCOc1ccccc1N | inactive: > 100 µM |
| COc1ccc2[nH]c3c(c2c1)CC(=O)N1CCCC(CC3O)C1 (centres undefined) | inactive: > 100 µM |
| CC1=NN(c2ccccc2)C(=O)C1/N=N/c1ccc(Br)cc1C (centres undefined) | inactive: > 100 µM |
| COc1ccc(C=O)cc1OS(=O)(=O)C(F)(F)C(F)(F)C(F)(F)C(F)(F)F | inactive: > 100 µM |
| COC1=C(C)C(=O)c2c(c(COC(N)=O)c3n2CC(OC(C)=O)C3OC(C)=O)C1=O (centres undefined) | inactive: 1.19 µM |
| c1ccc(-c2nc3ccccc3n3nnnc23)cc1 | inactive: > 100 µM |
| O=C(O)CCCCCOc1cccnc1/C=N/NC1=NCCN1 | inactive: > 100 µM |
| CC(=O)NC(c1nc2cc(C)c(C)cc2[nH]1)c1nc2cc(C)c(C)cc2[nH]1 | inactive: 25.2 µM |
| CCOc1ccc(NC(=O)CCc2nnc(SC)o2)cc1 | inactive: > 100 µM |
| CC1=C2C(=CC(C)(C)[C@@H]2O)C(=O)[C@](C)(O)C12CC2 [ILLUDIN M] | active: 0.0771 µM |
| COc1ccc2c(c1)c1c3c(ccc4ncn2c43)N(CCO)CCN=1 | active: 0.209 µM |
| CN(C)CCN1C(=O)c2cccc3cc(N)cc(c23)C1=O [AMONAFIDE] | inactive: 4.43 µM |
| Nc1ccc(S(=O)(=O)Nc2nc3ccccc3nc2N2CCCCC2)cc1 | inactive: > 100 µM |
| CC(C)c1cccc(C(C)C)c1NC(=O)C(=O)Cc1nc2ccc([N+](=O)[O-])cc2nc1O | inactive: 77.1 µM |
| CN(C)CCNC(=O)c1cccc2c(NC(CCC(N)=O)C(=O)O)c3ccccc3nc12 (centres undefined) | inactive: 12.6 µM |
| Nc1ccc(C(=O)O)cc1.Nc1nc(N)c2nc[nH]c2n1 | inactive: 17.6 µM |
| CCCC(O)c1ccc2[nH]c3c(C)cc([N+](=O)[O-])c(C)c3c2c1 (centres undefined) | inactive: > 100 µM |
| COc1cccc2c1C(=O)c1c(O)c3c(c(O)c1C2=O)CC(O)(C(C)=O)CC3OC1CC([N+](C)(C)C)C(O)C(C)O1 (centres undefined) | inactive: > 100 µM |
| COc1cc(C2C3=C(N=C4SC(C(C)=O)=C(C)N42)c2ccccc2CC3)cc(OC)c1OC (centres undefined) | inactive: > 100 µM |
| CC1=C2N3C[C@@H](n4c(=O)n(C)c(=O)n43)C23CCC1n1c(=O)n(C)c(=O)n13 | inactive: > 100 µM |
